In all, about 310,000 compounds went through this assay and about 14,000 (4.5%) showed an effect of 50% or more. The effect is printed as a negative number. The list shows a part of the results.
The molecules below were run against human ether-à-go-go-related gene (hERG) potassium channel (human, UniProt Q12809) (assay: primary screen, population patch clamp on CHO cells stably expressing hERG).
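Further: peak tail current of the secondary pulse compared with the same well before compound.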

Sequence of human ether-à-go-go-related gene (hERG) potassium channel (Q12809 whole entry, looked up): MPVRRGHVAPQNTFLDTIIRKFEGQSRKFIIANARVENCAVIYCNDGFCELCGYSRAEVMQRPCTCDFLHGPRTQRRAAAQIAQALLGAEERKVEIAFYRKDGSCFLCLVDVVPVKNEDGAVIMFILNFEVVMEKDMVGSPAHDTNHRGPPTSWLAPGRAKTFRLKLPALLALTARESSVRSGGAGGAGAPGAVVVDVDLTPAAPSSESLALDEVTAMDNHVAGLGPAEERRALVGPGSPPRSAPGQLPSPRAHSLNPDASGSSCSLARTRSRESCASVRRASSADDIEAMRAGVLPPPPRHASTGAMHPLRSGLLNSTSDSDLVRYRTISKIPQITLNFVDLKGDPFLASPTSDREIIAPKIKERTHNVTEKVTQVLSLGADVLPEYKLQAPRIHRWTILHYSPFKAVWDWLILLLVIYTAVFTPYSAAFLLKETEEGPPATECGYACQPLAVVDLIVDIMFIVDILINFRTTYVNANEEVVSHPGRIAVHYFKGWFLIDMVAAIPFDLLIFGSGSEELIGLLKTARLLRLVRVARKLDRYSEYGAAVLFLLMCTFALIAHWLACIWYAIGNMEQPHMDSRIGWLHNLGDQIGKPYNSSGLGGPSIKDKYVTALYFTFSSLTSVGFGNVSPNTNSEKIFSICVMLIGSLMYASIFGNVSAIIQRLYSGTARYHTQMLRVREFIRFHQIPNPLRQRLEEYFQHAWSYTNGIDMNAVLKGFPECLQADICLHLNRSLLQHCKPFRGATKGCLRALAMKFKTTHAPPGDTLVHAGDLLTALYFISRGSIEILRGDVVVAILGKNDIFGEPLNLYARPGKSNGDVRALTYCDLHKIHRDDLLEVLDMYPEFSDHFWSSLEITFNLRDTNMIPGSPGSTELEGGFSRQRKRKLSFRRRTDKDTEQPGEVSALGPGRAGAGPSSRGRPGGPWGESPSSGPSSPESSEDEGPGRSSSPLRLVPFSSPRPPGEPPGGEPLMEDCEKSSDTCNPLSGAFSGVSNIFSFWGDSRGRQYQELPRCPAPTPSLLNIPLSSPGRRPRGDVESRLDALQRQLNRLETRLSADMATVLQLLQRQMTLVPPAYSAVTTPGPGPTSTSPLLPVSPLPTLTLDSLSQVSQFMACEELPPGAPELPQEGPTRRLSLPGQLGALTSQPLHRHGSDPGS

Compound	hERG current change (%, negative = inhibition) at 10uM
CCOC(=O)c1ccc2c(c1)N(CC(=O)N1CCCC1)C(=O)C(C)(C)O2	-6.15%
COc1ccc(Cl)c2sc(N3CCN(C(=O)c4ccco4)CC3)nc12	-11%
O=C(O)Cn1cc(C(=S)N2CCOCC2)c2ccccc21	-4.28%
Cc1cccc(OCc2nnc3n2CCCCC3)c1	-11.2%
Cc1cc(NC(=NC2CC2)c2ccccc2F)n(-c2ccccc2)n1	-3.89%
COc1cc(CCC(=O)OCC(=O)Nc2ccc(Br)cc2F)cc(OC)c1OC	-11.6%
CCCP(=O)(CCC)CCP(=O)(c1ccccc1)c1ccccc1	20.2%
O=C(CSc1nc2[nH]ncc2c(=O)[nH]1)NCCc1ccccc1	26.9%
CCCCc1nc2ccccc2c(NC(=O)CN(CC)CC)c1CCC.O=C(O)C(=O)O	-26.8%
C/C(CC(=O)Nc1cccc(C(F)(F)F)c1)=N\NC(=O)Cc1ccccc1	15.7%
CSc1ccc(CN(C)C(=O)c2cccc(S(=O)(=O)NCc3ccccc3)c2)cc1	-11.1%
O=C1C=C(c2cccc(Br)c2)C[C@@H](c2ccc(F)cc2)C1	-2.46%
CCOc1ccc2ccccc2c1/C=N/NC(=O)CNC(=O)c1ccccc1O	0.596%
CCOC(=O)c1c(NC(=O)C2=C(C)NC(=S)NC2c2ccc(CC)cc2)sc(C)c1C (stereo not shown)	7.47%
CC12CCC(=O)N1C(C(=O)Nc1nc(-c3ccc(F)cc3)cs1)CS2 (stereo not shown)	6.39%
O=C(C1COc2ccccc2O1)N1CCN(c2ccccc2O)CC1 (stereo not shown)	-12.5%
N#CCCN(C(=O)COc1ccc(Cl)cc1Cl)c1ccccc1	-37.5%
CC(=O)c1cc(F)c(N2CCN(c3ccc([N+](=O)[O-])cc3F)CC2)cc1C	-12.3%
Oc1ccc(N=Nc2ccccc2)o1	9.51%
CC1=NNC(=O)C1CCC(=O)N/N=C\c1ccc(Cl)c(Cl)c1 (stereo not shown)	7.67%

Compound	hERG current change (%, negative = inhibition) at 10uM
Nc1nonc1-n1nnc(C(=O)N/N=C/c2ccncc2)c1-c1ccccc1	14.2%
O=C(/C=C/c1ccco1)N(Cc1ccccc1F)C1CCS(=O)(=O)C1 (stereo not shown)	-5.23%
CSc1ccccc1NC(=O)CN1CCN(Cc2ccccc2)CC1	-66.3%
CCN(CC)CCCNC(=O)c1cc2nc3c(c(C(F)(F)F)n2n1)CCc1ccccc1-3	-37.1%
O=C(CC(=O)NCc1cccnc1)NCc1cccnc1	-5.35%
CCn1cnc2c1c(=O)n(CC(=O)Nc1cc(C)on1)c(=O)n2Cc1ccccc1	2.01%
O=C(Nc1nnc(C2CCCO2)s1)c1cccs1 (stereo not shown)	1.35%
Cc1cc(C)cc(C(=O)N2CCC3(CC2)NCCc2[nH]cnc23)c1	19.8%
CC(=O)Nc1ccccc1C(=O)OCc1ccccc1F	3.58%
CCCn1c(-c2ccc(F)cc2)cnc1SCC(=O)O	8.51%
CCCn1nc(Oc2nc(NC(C)C)nc(N(C)C)n2)ccc1=O	20.7%
CC1CN(Cc2ccccc2)c2nc3c(c(=O)[nH]c(=O)n3C)n2C1 (stereo not shown)	-5.62%
CCS(=O)(=O)N1CCN(c2ncnc3sc(C)c(C)c23)CC1	-53.7%
Cc1cc(C)c(S(=O)(=O)NCc2csc(C)n2)c(C)c1	13.2%
C=CCOc1c(Br)cc(/C=C2/C(=O)ON=C2C)cc1OC	5.84%
O=C(c1ccc([N+](=O)[O-])cc1)N1CCN(C(=O)C2CCCCC2)CC1	-28.5%
CC(C)CC(NC(=O)CCl)c1ccccc1 (stereo not shown)	2.29%
CC(C)n1c(N2CCN(C(=O)NCc3ccccc3)CC2)nc2ccccc21	-59.2%
c1ccn2c(SCc3cn4ccsc4n3)nnc2c1	6.9%
Cn1c(SCC(=O)c2c(N)n(C)c(=O)n(C)c2=O)nnc1-c1ccc(F)cc1	17.6%

Compound	hERG current change (%, negative = inhibition) at 10uM
COc1cc(/C=N/n2c(-c3ccccc3)n[nH]c2=S)ccc1O	-4.77%
COC(=O)c1ccc(/C=C/c2c(-c3ccc(OC)cc3)oc3ccccc23)cc1	7.39%
CNC(C)Cc1ccccc1Sc1ccc(O)cc1.Cl (stereo not shown)	-66.7%
COc1ccc(NC(=O)COC(=O)c2n[nH]c3ccccc23)c(OC)c1	-4.2%
CCC1S/C(=N\S(=O)(=O)c2cccs2)N(C2CCCCC2)C1=O (stereo not shown)	-6.13%
CCCCC(=O)OCc1c(-c2ccccc2)ncc2ccccc12	3.13%
Cc1ccc(C(=O)NCC2CCCN2S(=O)(=O)c2ccc(C)cc2)cc1 (stereo not shown)	-33.8%
Cc1nn(Cc2ccccc2)c(C)c1C(=O)OCC(=O)NCc1ccco1	-34.3%
Br.N#Cc1ccc(CSC2=NCCN2)cc1	-4.5%
Cc1ccc(S(=O)(=O)NNC(=O)C2CCCCC2)cc1	9.57%
COC(=O)COc1ccc(-n2cnnn2)cc1	25.8%
Cc1ccnc(NC(=O)CS(=O)(=O)c2ccccc2)c1	1.38%
Cn1c(=O)c(=O)n(C)c2cc([N+](=O)[O-])c(N3CCOCC3)cc21	-5.96%
CC1CCN(c2nc(-c3ccccc3)cc(C(F)(F)F)n2)CC1	-0.231%
Cc1cccc(S(=O)(=O)C(C#N)c2nc3ccccc3nc2N2CCCC2)c1 (stereo not shown)	-18.4%
Cc1cc(C)c2c(n1)SCC(=O)N2CC(=O)Nc1cc(F)ccc1F	-7.16%
CC(=O)Nc1ccc(S(=O)(=O)NCC2CCC(C(=O)NC(C)c3ccccc3)CC2)cc1 (stereo not shown)	17.8%
COC1=CC(=O)CC(C)C12Oc1cc(OC)cc(OC)c1C2=O (stereo not shown)	3.5%
